Data from PubChem BioAssay AID1745845 (National Center for Advancing Translational Sciences (NCATS), 2022).
Screen size: about 360,000 compounds; about 2,600 (0.72%) were called active. The inconclusive results got no clear call from the source; some entries with a clear call stand among them for comparison. The call rests on the fitted dose curve; in most records, active means well fitted inhibition curve with a large enough effect; inconclusive means small, poorly fitted or top-dose-only effect; inactive means no such curve, though single readings can be large or run the other way. Potencies beside an inconclusive call are fits to weak or partial responses and may not hold up.

test: Primary qHTS for Inhibitors of ATXN expression; details: HEK-293 ATXN2-luciferase reporter, luminescence, 24 h; activity change, negative = inhibition: at 57 µM (top of the series); further: nearly all actives have a fitted effect of over 55% in size
How it was run: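 ATXN2-luciferase reporter cells (luciferase flanked by upstream and downstream ATXN2 gene portions) were treated 24 h at 37 °C with compounds at up to 57 uM. SteadyGlo luminescence gave expression; GF-AFC fluorescence gave viability.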
On the % scale 0 is the no-effect control and ±100 the full control effect; potency means the concentration at half of the fitted maximal effect; tags describe the fitted curve by direction and shape.

Structure (SMILES)	Potency	activity change, negative = inhibition
CCN(CC)CC#CCC(C)(c1ccccc1)c1ccccc1	inconclusive: 14.1 µM [inhibitor, partial curve, poor fit]	–
Cc1ccccc1N=Cc1cc2c(cc1O)OC(N)=C(C#N)C2c1ccccc1 (stereo unspecified)	inconclusive: 31.6 µM [inhibitor, partial curve, poor fit]	–
CC(C)OCCCNC(=O)CN1C(=O)c2ccccc2Sc2ncccc21	inactive	–
CN1CCc2c(sc(/N=C/c3c[nH]c4ccccc34)c2C(N)=O)C1	inactive	–
CCn1cc(/C=N\NC(=O)c2ccc(Cl)cc2)cn1	inactive	–
O=C(COC(=O)c1cc(S(=O)(=O)N2CCOCC2)ccc1F)c1ccc[nH]1	inactive	–
COC(=O)C1=C(C)N(Cc2ccccc2)C(=NCc2ccc(OC)cc2)N[C@H]1c1ccccc1	inconclusive: 31.6 µM [inhibitor, partial curve]	–
COc1ccc(-c2nn(-c3ccccc3)cc2C(=O)O)cc1OC	inactive	–
O=C(Nc1ccc([N+](=O)[O-])cc1)OC1CCS(=O)(=O)C1 (stereo unspecified)	inactive	–
COC(=O)c1cc(C)nc(Nc2nc(C(N)Cc3ccc(F)cc3)cs2)n1 (stereo unspecified)	inactive	–
CSc1ccc(/C=C/C(=O)c2ccc(NC(=O)Cc3ccccc3)cc2)cc1	inactive	–
CC(=O)NC(CCS(C)(=O)=O)C(=O)Nc1cc(Cl)ccc1Cl (stereo unspecified)	inactive	–
CC(C)N(Cc1nc(-c2ccc(Cl)cc2)no1)C(=O)c1ccco1	inconclusive: 28.2 µM [inhibitor, partial curve, poor fit]	–
CCCCn1nnnc1C(c1cc2ccccc2o1)N1CCN(C/C=C/c2ccccc2)CC1 (stereo unspecified)	inactive	–
Cc1cc(C)c2cc(C#N)c(SCC(=O)NCc3ccco3)nc2c1	inactive	–
CCc1nnc(N2C(=O)c3cccc4cccc(c34)C2=O)s1	inactive	–
NS(=O)(=O)c1ccc(CNC(=O)c2cc(-c3cccnc3)nc3ccccc23)cc1	inconclusive: 29.9 µM [inhibitor, partial curve, poor fit]	–
CN(C)CCCNc1nc2cc(-c3cccc(Cl)c3)sc2c(=O)n1C	inconclusive: 25.1 µM [inhibitor, partial curve, poor fit]	–
O=C(N/N=C/c1ccncc1)c1nn(Cc2ccccc2)c(=O)c2ccccc12	inconclusive: 0.844 µM [inhibitor, full curve, poor fit]	–
COC(=O)c1cc(=O)n(CCc2ccccc2F)c(=Nc2ccc(F)c(Cl)c2)s1	active: 26.7 µM	–
Cc1nc2c(OCc3ccc(C(F)(F)F)cc3)cccn2c1N(C)C(=O)CCC1CCCC1	active: 31.6 µM	–
CCN(CCCNC(=O)c1cc2c(-c3cccc(OC)c3)nn(C)c2s1)Cc1ccccc1	inconclusive: 17.8 µM [inhibitor, partial curve, poor fit]	–
O/C(=C\Sc1nnc(Cc2ccccc2)o1)c1ccc(Br)cc1	inactive	–
CCOC(=O)c1cc(-c2ccccc2)sc1NC(=O)COC(=O)c1ccc(Cl)c(S(N)(=O)=O)c1	inconclusive: 2.82 µM [inhibitor, full curve]	–

Structure (SMILES)	Potency	activity change, negative = inhibition
Cn1c(N)c(S(=O)(=O)NCc2ccccc2Cl)c(=O)n(C)c1=O	inconclusive: 6.31 µM [inhibitor, partial curve, poor fit]	–
Cc1ccc(NC(=O)CN2C(=O)CC(c3ccc(C)c(C)c3)=Nc3ccccc32)cc1	inactive	–
Cc1cc(C)c2sc(N(CCCN(C)C)C(=O)c3ccc(S(=O)(=O)N(C)Cc4ccccc4)cc3)nc2c1	inconclusive: 39.8 µM [inhibitor, single point]	–
O=C(c1cccc(C(=O)N2CCN(c3ccccc3)CC2)c1)N1CCN(c2ccccc2)CC1	inactive	–
CCC(CC)C(=O)Nc1cc(-c2nc3cccnc3s2)ccc1C	inactive	–
CSc1nn(CC(=O)Nc2cc(C)ccc2C)c(N)c1S(=O)(=O)c1ccccc1	inactive	–
CC(C)(C)N(Cc1ccc2c(c1)OCO2)C(=O)/C=C\S(=O)c1ccccc1 (stereo unspecified)	active: 15.8 µM	–
CCc1nc2ccc(C(=O)N(C)Cc3ccco3)cn2c1N(C)CCCc1ccccc1	inconclusive: 17.8 µM [inhibitor, partial curve]	–
COc1ccc(NC(=O)CC(C)S(=O)(=O)c2cc3c(cc2C)NC(=O)CO3)cc1OC (stereo unspecified)	inactive	–
C/C(=N\NC(=O)CN(c1ccccc1)S(C)(=O)=O)c1ccccc1O	inconclusive: 31.6 µM [inhibitor, single point]	–
Cc1cccc(C)c1N1C(=O)C(Cl)=C(N2CCCC2)C1=O	–	inconclusive: -59.8% [inhibitor]
CCOc1ccccc1NC(=O)N1CCC(c2nc3ccccc3[nH]2)CC1	inconclusive: 28.2 µM [inhibitor, single point]	–
O=[N+]([O-])c1ccc(O)c(-c2ccnc3cc(-c4ccccc4)nn23)c1	inconclusive: 35.5 µM [inhibitor, single point]	–
Cc1ccc(CS(=O)(=O)c2ncc(Cl)c(C(=O)Nc3ccc(OC(F)F)cc3)n2)cc1	inconclusive: 25.1 µM [inhibitor, single point]	–
CCC(=C(CC)c1ccc(O)cc1)c1ccc(O)cc1	inconclusive: 27.3 µM [inhibitor, single point]	–
O=C(/C(=C/c1cccc(Cl)c1)c1nc2ccccc2[nH]1)c1ccccc1	inconclusive: 39.8 µM [inhibitor, single point]	–
Cc1ccc(C(C(=O)NCc2ccccc2)N(Cc2cccs2)C(=O)c2ccc3c(c2)OCCO3)cc1 (stereo unspecified)	inconclusive: 31.6 µM [inhibitor, single point]	–
Cc1nc2c(c(C)nn2C(C)(C)C)c(C)c1CCC(=O)Nc1ccc(F)cc1	inactive	–
COc1cc(Cn2c3ccc(NC(=O)CCc4ccc(O)cc4)cc3c(=O)n2C)ccc1F	inconclusive: 1.12 µM [inhibitor, full curve, poor fit]	–
CC(Sc1nnc(CNC(=O)c2ccco2)n1C)C(=O)Nc1nccs1 (stereo unspecified)	inconclusive: 8.44 µM [inhibitor, partial curve, poor fit]	–
O=C(Nc1nc(-c2ccc(S(=O)(=O)N3CCCC3)cc2)cs1)c1cccs1	inconclusive: 15.8 µM [inhibitor, single point]	–
COc1ccc(C)c2sc(N3CCN(C(=O)c4ccco4)CC3)nc12	inactive	–
CC(=O)c1sc(NC(=O)CCS(=O)(=O)c2ccccc2)nc1C	inconclusive: 31.6 µM [inhibitor, single point]	–
COc1ccc(NC(=O)CSc2nnc(COc3ccccc3)n2Cc2ccco2)cc1OC	inactive	–

Structure (SMILES)	Potency	activity change, negative = inhibition
CCOc1ccc(N/C=C/C(=O)c2ccccc2)cc1	inconclusive: 39.8 µM [inhibitor, single point]	–
CCOC(=O)N1CCC(c2cc(=O)n3[nH]c(C)c(-c4ccc(F)cc4)c3n2)CC1	active: 31.6 µM	–
CC(C)C(=O)Nc1ccc2nc(SCC(=O)N3CCc4ccccc43)sc2c1	inconclusive: 31.6 µM [inhibitor, single point]	–
Cc1ccc(N(CC(=O)N2CCN(Cc3ccccc3)CC2)S(C)(=O)=O)cc1C	–	inconclusive: -46.9% [inhibitor]
Cc1ccc(NC(=O)CN(C)C(=O)Cn2ncc(Cl)c(Cl)c2=O)cc1	inconclusive: 39.8 µM [inhibitor, single point]	–
CC[C@H](CO)Oc1cc(NCc2ccc(Cl)c(Cl)c2)c2ncn(C(C)C)c2c1	inconclusive: 35.5 µM [inhibitor, single point]	–
Cc1c(C)n(Cc2ccc(-c3ccccc3C(=O)O)cc2)c2ccc(C(=O)N[C@@H](C)c3ccc([N+](=O)[O-])cc3)cc12	inconclusive: 0.0193 µM [inhibitor, full curve]	–
CCN(C(=O)c1cccs1)c1nnc(-c2ccncc2)s1	inactive	–
CCN(CC)c1ccc(/C=N/NC(=S)NCc2ccco2)cc1	inactive	–
COc1cccc(/C=N/Nc2nc(-c3cccnc3)nc3ccccc23)c1	inactive	–
Cc1ccccc1NC(=O)c1c(-c2ccccc2)noc1C	inactive	–
CC(C)Oc1ccc(Cl)cc1Nc1nc(NCCO)nc(N2CCCC2)n1	inconclusive: 28.2 µM [inhibitor, partial curve, poor fit]	–
CC(=O)Nc1ccccc1N(CC(O)Cn1c2ccccc2c2ccccc21)S(=O)(=O)c1ccc(C)cc1 (stereo unspecified)	inconclusive: 37.7 µM [inhibitor, single point]	–
O=C(c1ccc(Cl)c(Cl)c1)N1CCC(=O)N(C(COCc2ccc(Cl)cc2)Cc2ccccc2)CC1 (stereo unspecified)	inconclusive: 22.4 µM [inhibitor, single point]	–
CC(C)c1ccc2occ(CC(=O)N(Cc3ccc(F)cc3)C3CCS(=O)(=O)C3)c2c1 (stereo unspecified)	inconclusive: 39.8 µM [inhibitor, single point]	–
COc1ccc(CCNC(=O)c2ccc3c(c2)ncn3-c2ccc(C(C)C)cc2)cc1OC	active: 25.1 µM	–
COc1ccc(NS(=O)(=O)c2ccc3[nH]c4c(c3c2)CCCCC4)cc1	inconclusive: 39.8 µM [inhibitor, single point]	–
CC(=O)c1ccc(-n2c(-c3cc(-c4ccco4)[nH]n3)n[nH]c2=S)cc1	inactive	–
O=c1c2ccccc2sn1-c1ccc(Cl)cc1	inconclusive: 39.8 µM [inhibitor, single point]	–
COc1ccc(C(N)c2csc(Nc3cc(Oc4ccccc4)ncn3)n2)cc1 (stereo unspecified)	inconclusive: 31.6 µM [inhibitor, single point]	–
COc1ccc(-c2coc(CCC(=O)N3CCN(c4cc(C)ccc4C)CC3)n2)cc1	inactive	–
C/C(=N\Nc1nncc2ccccc12)c1ccc(O)cc1	inactive	–
NC(=O)c1cccc(-c2coc3c(C(=O)NC4CCCCC4)cccc23)c1	inconclusive: 28.2 µM [inhibitor, single point]	–
